Data as given in the RNAGym collection of RNA variant scans (doi:10.7554/elife.90254).
The source gives no read counts; variants with many changes may rest on few reads.

B1: LINE1-full (parent)
chain: UACGUAGGUGGUUUUCCCCUGAUAGUGCUAAGGGGGCCUGGAAGUUUGGACUGGGCAGAGCUCAACACAGCGUGGCAAAGUGGCUGUGGCUAGACUGCCUCUCUGGAUUCCUCGUCACUCAGCAGGGCAUCUCUGAGAGAAAUGCC

Variants of: B1
Assay: self-cleavage, relative activity (ratio to wild type); higher = more cleavage; in vitro, sequencing; the parent is a self-cleaving ribozyme

Variant | self-cleavage
A30G A59G C84A U85G | 0
A30G A59G G80A U85A | 0.19
A30G A64G A77G A78G | 0
A30G A64G A129U | 0.71
A30G A64G A140G | 0.25
A30G A64U A94G | 0.25
A30G A65U A77C U134A | 0.22
A30G A65U A136G | 0.5
A30G A67G A138U | 0
A30G A67U G89A | 0.05
A30G A69G G106A | 0.18
A30G A77U U81G A124G | 1.56
A30G A79G U102C | 0.57
A30G A94G U132C | 0
A30G A117G A141G | 0.66
A30G C51A U62A | 0.07
A30G C66U U87C | 0
A30G C71A A77G U134A | 0.3
A30G C76U A79G A140G A141G | 2.18
A30G C95U U115A | 0.14
A30G C128A A140G | 0.43

Variant | self-cleavage
A30G G33A G35A G53A A92G | 0.02
A30G G34A U47C C113A | 0.78
A30G G35A C37G | 0.96
A30G G53A U62C U130C | 0.06
A30G G74A A92G | 0.05
A30G G74U U96G | 0
A30G G80U U96A | 0.13
A30G U39A A43G A141G U143C | 0.89
A30G U39A U73A A140U | 1.5
A30G U39C A124U | 1.08
A30G U39C U46C U87A U115A | 0.38
A30G U47A U108C G127A | 1
A30G U47C A64U | 0.5
A30G U47C A79G | 0.71
A30G U47C A138G | 1.15
A30G U47C U100A | 2.04
A30G U47C U115A U130C | 1.62
A30G U52A U112A | 1.02
A30G U52A U115C | 0.86
A30G U52A U132C A142G | 0.8
A30G U62A A69U C113U | 0.1

Variant | self-cleavage
A30G U62A A136G | 0.28
A30G U62A U104G | 0
A30G U62C A142G | 0.32
A30G U73C U96A | 0.1
A30G U81C G144A | 0.51
A30G U85C U100A A117U A140G | 0
A30G U85C U104C A121U | 0
A30G U96C A138G | 0.48
A30G U104C C113A | 1.31
A30G U108C U130C | 0.46
A30G U109C A124G | 1.53
A30G U109C G135A | 1.23
A30G U115C U143A | 2.51
A30G U134G A142G | 1.03
A30U A31G U45C | 0
A30U A42G A65G A94U C145U | 0.14
A30U A42G A79U U102A U143C | 1.22
A30U A43G A92G | 0.21
A30U A43U C103U U109A A142C | 1.11
A30U A50G A77G | 0.92
A30U A50G C76U U115C | 1.33

Variant | self-cleavage
A30U A59G G83U A129G | 0.03
A30U A59G U73A | 0.11
A30U A59U A78U U134A G144A | 0.86
A30U A64C A65G | 0
A30U A64U G74A A94U U109C | 0.11
A30U A65G G72A U104C U112C A138G | 0
A30U A69C A94G | 0.25
A30U A77G U81C U104A A141G | 1.15
A30U A77U A117U | 0.71
A30U A77U G93U | 0.04
A30U A77U U85C | 0.12
A30U A78G A94G | 0.3
A30U A121G A138U | 1.28
A30U A129G U132A | 1.81
A30U A129U U130C | 0.15
A30U C37A U52G | 2.13
A30U C63U A140G | 0.36
A30U G33U A78G A138U | 0.95
A30U G36A G114A | 1.44
A30U G40U G70U A121C | 0
